Measured values: the supplement of paper PMC6206098
± gives the uncertainty stated by the source. The sequences are guide strands of siRNAs; only the seed at positions 2 to 7 varies.

Columns and labels:
[1] = test system: 3LL; assay: cell viability relative to siNT1 control; higher = less toxic; details: concentration: 10 nM; 96 h; Mus musculus;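 note: Luminescence-based viability of cells reverse transfected in 384-well plates with lipid-complexed siRNAs built on a non-toxic 19mer backbone whose passenger strand carries 2′-O-methyl groups at positions 1 and 2, triplicates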
[2] = test system: M565; assay: cell viability relative to lipid-only control; HeyA8 human ovarian and H460 human lung cancer; M565 mouse liver and 3LL mouse lung cancer; siNT1 is a non-toxic control siRNA; higher = less toxic; details: concentration: 10 nM; 96 h; Mus musculus
Procedure: (§1)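 Arrayed screen of 4096 siRNA duplexes, each carrying one of all possible 6mer seeds at guide-strand positions 2-7 in a fixed neutral 19mer scaffold (constant flanks: U at position 1, then ACAUGUAAACCA, plus a 3' AA overhang). The passenger strand is 2'-O-methylated at positions 1-2 so only the guide strand loads into RISC. Duplexes were reverse-transfected at 10 nM with RNAiMAX in triplicate in 384-well plates; viability was read by CellTiter-Glo ATP content 96 h after transfection. Values are % viability normalised to lipid-only wells (HeyA8, H460, M565) or to siNT1 (3LL).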

[3] = test system: HeyA8; assay: as above; details: concentration: 10 nM; 96 h; Homo sapiens
Procedure: as §1

[4] = test system: H460; assay: as above; details: concentration: 10 nM; 96 h; Homo sapiens
Procedure: as §1
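Throughout, for cell viability relative to lipid-only control: reverse lipid transfection in 384-well plates, in triplicate, of duplexes on a non-toxic 19mer backbone with passenger strand 2′-O-methylated at positions 1 and 2, luminescence viability read-out.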

In the case of UUUUAUCACAUGUAAACCAAA, the cell viability [1] is reported as 89.2 ± 9.5%, the cell viability [2] is reported as 67.2 ± 1.9% and the cell viability [3] is reported as 87.3 ± 6.3%. The cell viability [4] was 67.4 ± 4.9%.

UUACCUCACAUGUAAACCAAA showed a cell viability [1] of 20.2 ± 4.5%, a cell viability [2] of 34.6 ± 8.3% and a cell viability [3] of 70.2 ± 1.6%. It also gave a cell viability [4] of 52.6 ± 5.3%.

UAGAGACACAUGUAAACCAAA gave a cell viability [1] of 35.5 ± 7.8%, a cell viability [2] of 19.5 ± 5.3% and a cell viability [3] of 25.5 ± 6.8%. The cell viability [4] was 38.1 ± 6.2%.

UGUAGUUACAUGUAAACCAAA was tested, and the cell viability [1] was 68.4 ± 8.4%, the cell viability [2] was 36.4 ± 5.1% and the cell viability [3] was 37.9 ± 2.3%. For the same sequence, the cell viability [4] was 43.9 ± 5.7%.

For UUUUCCAACAUGUAAACCAAA, the cell viability [1] was 92.1 ± 8.2%, the cell viability [2] was 83.1 ± 13% and the cell viability [3] was 83.8 ± 5.1%. It also gave a cell viability [4] of 81.4 ± 17%.

With UUUCUUCACAUGUAAACCAAA the cell viability [1] was 48.7 ± 1.3%, the cell viability [2] was 120 ± 5.2% and the cell viability [3] was 40.9 ± 2.8%. For the same sequence, the cell viability [4] was 53.4 ± 4.6%.

UUGCGGAACAUGUAAACCAAA was tested, and the cell viability [1] was 82.3 ± 3.2%, the cell viability [2] was 61.5 ± 2.5% and the cell viability [3] was 90.5 ± 4.5%. For the same sequence, the cell viability [4] was 70.9 ± 7.3%.

UUGCGGGACAUGUAAACCAAA was tested, and the cell viability [1] was 59.9 ± 8.4%, the cell viability [2] was 45.8 ± 8.9% and the cell viability [3] was 59.7 ± 6.9%. It also gave a cell viability [4] of 53.8 ± 3.4%.

With UGCGGGAACAUGUAAACCAAA the cell viability [1] was 67.4 ± 8%, the cell viability [2] was 40 ± 4.5% and the cell viability [3] was 9.84 ± 1.4%. It also gave a cell viability [4] of 23.3 ± 2.3%.

UCUAGUCACAUGUAAACCAAA gave a cell viability [1] of 89.9 ± 7%, a cell viability [2] of 38 ± 6.9% and a cell viability [3] of 76 ± 5.9%. The cell viability [4] was 74.4 ± 2.9%.

With UUCCUAGACAUGUAAACCAAA the cell viability [1] was 22.5 ± 3.2%, the cell viability [2] was 74.9 ± 9.5% and the cell viability [3] was 91.2 ± 14%. It also gave a cell viability [4] of 53.4 ± 7.3%.

UAUAUAGACAUGUAAACCAAA showed a cell viability [1] of 94.8 ± 21%, a cell viability [2] of 105 ± 15% and a cell viability [3] of 98.8 ± 10%. It also gave a cell viability [4] of 64.5 ± 3.4%.

With UCACACCACAUGUAAACCAAA the cell viability [1] was 38.2 ± 7.9%, the cell viability [2] was 27.2 ± 1.9% and the cell viability [3] was 37.1 ± 3.5%. The cell viability [4] was 15.4 ± 1.1%.

Work on UACGCCCACAUGUAAACCAAA yielded a cell viability [1] of 57.8 ± 7%, a cell viability [2] of 31.4 ± 6.6% and a cell viability [3] of 48.2 ± 1.3%. The cell viability [4] was 66 ± 11%.

UAAAAGAACAUGUAAACCAAA showed a cell viability [1] of 110 ± 14%, a cell viability [2] of 91.4 ± 13% and a cell viability [3] of 87.4 ± 1.2%. For the same sequence, the cell viability [4] was 70.8 ± 4.4%.

For UUGCCUGACAUGUAAACCAAA, the cell viability [1] was 45.5 ± 7.9%, the cell viability [2] was 53.4 ± 4.4% and the cell viability [3] was 5.96 ± 0.57%. For the same sequence, the cell viability [4] was 17.1 ± 0.89%.

Work on UUAUUCUACAUGUAAACCAAA yielded a cell viability [1] of 38 ± 7.9%, a cell viability [2] of 31.3 ± 11% and a cell viability [3] of 66.5 ± 3.4%. For the same sequence, the cell viability [4] was 53.3 ± 3%.

With UCCAUUCACAUGUAAACCAAA the cell viability [1] was 80.6 ± 13%, the cell viability [2] was 47.8 ± 3.8% and the cell viability [3] was 60.1 ± 2.4%. It also gave a cell viability [4] of 66.6 ± 2.9%.

For UUCAAUGACAUGUAAACCAAA, the cell viability [1] was 68.8 ± 18%, the cell viability [2] was 93.3 ± 12% and the cell viability [3] was 91.8 ± 7%. It also gave a cell viability [4] of 76.5 ± 9.8%.

With UUUGGGGACAUGUAAACCAAA the cell viability [1] was 76.9 ± 4.7%, the cell viability [2] was 31.8 ± 2.1% and the cell viability [3] was 73.7 ± 5.7%. For the same sequence, the cell viability [4] was 54.3 ± 4.2%.

For UUUCAACACAUGUAAACCAAA, the cell viability [1] was 68.71 ± 0.48%, the cell viability [2] was 70.9 ± 7.6% and the cell viability [3] was 83.6 ± 7.2%. For the same sequence, the cell viability [4] was 49.9 ± 7.9%.

In the case of UCAUCUGACAUGUAAACCAAA, the cell viability [1] is reported as 92.5 ± 18%, the cell viability [2] is reported as 38 ± 7.3% and the cell viability [3] is reported as 64 ± 2.4%. It also gave a cell viability [4] of 49.5 ± 5.5%.

With UUUCAGAACAUGUAAACCAAA the cell viability [1] was 94.6 ± 5.8%, the cell viability [2] was 78.5 ± 11% and the cell viability [3] was 80.9 ± 2.4%. The cell viability [4] was 56.6 ± 2%.

Sequence UUGGAACACAUGUAAACCAAA has a cell viability [1] of 71.1 ± 6.7%, a cell viability [2] of 31.9 ± 6.5% and a cell viability [3] of 85.4 ± 5.6%. It also gave a cell viability [4] of 77.9 ± 8.1%.

UCGAGUUACAUGUAAACCAAA showed a cell viability [1] of 79.9 ± 17%, a cell viability [2] of 69.8 ± 8.3% and a cell viability [3] of 69.6 ± 4.1%. The cell viability [4] was 76.5 ± 18%.

For UACAACCACAUGUAAACCAAA, the cell viability [1] was 21.1 ± 1.6%, the cell viability [2] was 15.2 ± 0.47% and the cell viability [3] was 40.8 ± 2%. For the same sequence, the cell viability [4] was 37 ± 3.2%.

UGUGUAUACAUGUAAACCAAA was tested, and the cell viability [1] was 64.5 ± 12%, the cell viability [2] was 12.4 ± 3% and the cell viability [3] was 36.1 ± 4.3%. For the same sequence, the cell viability [4] was 55.5 ± 2.6%.

Work on UGAGUAUACAUGUAAACCAAA yielded a cell viability [1] of 51.7 ± 6.6%, a cell viability [2] of 31.7 ± 11% and a cell viability [3] of 24 ± 5.3%. It also gave a cell viability [4] of 64.9 ± 9.2%.
